Each structure is given as a SMILES string. Several values for one entry are separate records, joined by “and”; a condition that tells them apart may be missing. Equal values may be shown once. In all, about 16,000 compounds went through this assay and about 40 (0.2%) were called active. Not shown: some 1% with an inconclusive outcome. Calls come from the whole dose curve; as a rule, active = well fitted activation curve with a large enough effect; inconclusive = small, poorly fitted or top-dose-only effect, or another doubt; inactive = no such curve, though single readings can be large or run the other way. This is one part of the list.
% is set by controls: 0 for no effect and ±100 for the full control effect.

Chain of UniProt Q8WZA2 (Q8WZA2 whole entry, looked up): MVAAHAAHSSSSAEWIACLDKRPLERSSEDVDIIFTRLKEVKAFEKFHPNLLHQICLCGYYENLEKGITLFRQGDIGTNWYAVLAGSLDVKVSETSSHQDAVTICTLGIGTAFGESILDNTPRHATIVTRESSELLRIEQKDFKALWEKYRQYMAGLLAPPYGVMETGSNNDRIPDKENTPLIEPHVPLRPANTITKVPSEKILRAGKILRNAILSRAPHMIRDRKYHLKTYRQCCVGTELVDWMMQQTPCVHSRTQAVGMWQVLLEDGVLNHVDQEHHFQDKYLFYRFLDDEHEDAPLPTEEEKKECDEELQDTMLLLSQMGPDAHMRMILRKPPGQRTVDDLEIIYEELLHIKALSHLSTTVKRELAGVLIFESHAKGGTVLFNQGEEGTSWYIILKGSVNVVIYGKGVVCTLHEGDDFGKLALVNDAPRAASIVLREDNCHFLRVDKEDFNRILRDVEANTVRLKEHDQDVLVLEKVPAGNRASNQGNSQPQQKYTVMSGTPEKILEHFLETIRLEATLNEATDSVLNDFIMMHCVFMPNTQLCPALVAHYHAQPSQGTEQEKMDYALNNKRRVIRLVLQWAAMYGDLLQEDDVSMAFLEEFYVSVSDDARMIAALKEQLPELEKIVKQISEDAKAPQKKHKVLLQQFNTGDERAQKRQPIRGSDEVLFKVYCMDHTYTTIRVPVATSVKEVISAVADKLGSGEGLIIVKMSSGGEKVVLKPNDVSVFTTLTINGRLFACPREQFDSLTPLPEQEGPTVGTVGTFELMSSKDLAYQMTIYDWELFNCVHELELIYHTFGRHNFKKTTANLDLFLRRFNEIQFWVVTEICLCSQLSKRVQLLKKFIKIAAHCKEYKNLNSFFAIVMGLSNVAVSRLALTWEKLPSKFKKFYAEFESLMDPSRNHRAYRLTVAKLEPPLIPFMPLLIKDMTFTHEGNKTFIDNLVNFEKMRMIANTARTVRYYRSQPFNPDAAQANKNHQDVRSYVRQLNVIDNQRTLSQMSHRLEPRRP

This assay has as its target Rap guanine nucleotide exchange factor 4 (Homo sapiens) (UniProt Q8WZA2). In words: Validation qHTS for agonist of cAMP-regulated guanine nucleotide exchange factor 4 (EPAC2).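 Note: exchange makes BODIPY-GDP fluorescence drop when released from Rap1B; series mostly up to about 150 µM.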 To be noted: EPAC2 Rap1B BODIPY-GDP exchange, fluorescence; activation: active compounds read high. An excerpt:
Principle Investigator: Xiaodong Cheng Ph.D.
The University of Texas Medical Branch, […], TX
In multi-cellular eukaryotic organisms, the effects of cAMP are transduced by two ubiquitously-expressed intracellular cAMP receptors, the classic protein kinase A/cAMP-dependent protein kinase (PKA/cAPK) and the more recently discovered exchange protein directly activated by cAMP/cAMP-regulated guanine nucleotide exchange factor (EPAC/cAMP-GEF). Both PKA and EPAC are ubiquitously expressed in all tissues, and an increase in intracellular cAMP levels will lead to the activation of both PKA and EPAC. Therefore, careful dissections of the individual role and relative contribution of EPAC and PKA within the overall cAMP signaling in various model systems are critical for further elucidating the mechanism of cAMP signaling. To date no EPAC-specific antagonists and agonist, as well as isoform-specific agonists have been reported, and developing EPAC-specific pharmacological probes to determine the physiological functions that EPAC play in the overall cAMP-mediated signaling remains a major challenge within the research field. Furthermore, identified regulators of EPAC may lead to new mechanism-based therapeutic strategies specifically targeting the EPAC / cAMP-signaling components as EPAC has been implicated to play important roles in major human pathological conditions such as diabetes, heart disease, and cancer.
This qHTS will be used to screen the Molecular Libraries Small Molecule Repository (MLSMR) as a concentration-titration series using the NCGC unique quantitative screening (qHTS) platform to find activators for EPAC1. In addition, this assay will also be used as a counterscreen for the EPAC2 qHTS. This fluorescent based assay is developed and validated for EPAC1 that measures exchange using EPAC effector Rap1 complex with BODIPY-GDP, a GDP analog with a tethered fluorophores. Activators are identified by monitoring the change in fluorescence signal as the exchanged free BODIPY-GDP has a reduced fluorescence compared to Rap1-bound BODIPY-GDP. Increase in signal (activation) is the desired outcome for the EPAC1 agonist while no activity in this assay is desired for the EPAC2 agonist counterscreen.
[1] de Rooij, J., Zwartkruis, F. J., Verheijen, M. H., Cool, R. H., Nijman, S. M., Wittinghofer, A., and Bos, J.L. (1998) Nature 396, 474-477.
Briefly, three uL of reagents (100 nM EPAC2, 250 nM RAP1B-BODIPY-GDP, 50 uM GDP) were dispensed into a 1536-well Greiner black solid-bottom medium binding assay plate. Controls and test compounds (23 nL) were transferred to the plate via a Kalypsys pin tool equipped with a 1536-pin array. The plates were centrifuged at 1,000 rpm for 15 seconds followed by 5 minute incubation at room temperature. The assay plates were read at 5 minute intervals for 30 minutes in the ViewLux plate reader using 480nm excitation and 540nm emission filters. The results were normalized to the agonist positive control of 6.5 mM cAMP.
Background: qHTS replaces the single test concentration by a dilution series.
Regarding `COc1ccccc1-c1ccnc(-n2ncc(C(=O)NCc3ccncc3)c2C)n1`, the activation was inactive: -3.23%. The value for `NCC[C@H](O)C(=O)N[C@@H]1C[C@H](N)[C@@H](O[C@H]2O[C@H](CN)CC[C@H]2N)[C@H](O)[C@H]1O[C@H]1O[C@H](CO)[C@@H](O)[C@H](N)[C@H]1O` was inactive: -0.654%; that for `O=Cc1ccccc1-c1cn(CN2C(=O)c3ccccc3C2=O)nn1` was inactive: -2.2%; that for `COc1ccc(NC(=O)N2CCCC3(CCN(S(=O)(=O)c4ccccc4)CC3)C2)cc1` was inactive: -20.4%. As to `COC(=O)C(CN)c1c[nH]c2ccc(OC)cc12` (centres undefined), the activation was inactive: 1.26%. The value for `CCC1(C2CCN(C(=O)c3cc(C)cc(C)c3)CC2)NC(=O)N(CCc2scnc2C)C1=O` (centres undefined) was inactive: -11.7%; that for `O=C(c1ccncc1)N1CCC2(CC1)CN(c1ccccc1)C2` was inactive: -2.58%. Regarding `COC(=O)[C@@H]1[C@H]2C[C@H]3c4[nH]c5ccccc5c4CCN3C[C@@H]2CC[C@@H]1O`, the activation was inactive: -15% and inactive: -8.63%.

As to `C[C@]12C=CC(=O)C=C1CC[C@@H]1[C@@H]2[C@@H](O)C[C@@]2(C)[C@H]1CC[C@]2(O)C(=O)COC(=O)CCC(=O)O`, the activation was inactive: -1.2%. Turning to `Cc1cnc(SCCN2CCOCC2)nc1C1CCCN(C(=O)c2cccc3c(C)c(C)[nH]c23)C1` (centres undefined), the activation is inactive: -5.56%. With `CCC(C)n1ncn(-c2ccc(N3CCN(c4ccc(OC[C@H]5CO[C@](Cn6cncn6)(c6ccc(Cl)cc6Cl)O5)cc4)CC3)cc2)c1=O` (some centres undefined), the activation is inactive: -3.7%. In the case of `COc1ccc(-n2c(=O)c(CCc3ccccc3)nc3cnc(N(C)C)nc32)cc1`, the activation is inactive: -0.998%.

On to `COc1ccc(-c2nc3cnc(Nc4ccccc4)nc3n(CCC#N)c2=O)cc1`, for which the activation is inactive: -2.2%.

Regarding `O=C(NCCc1ccncc1)c1cnn(-c2ncc3c(n2)-c2ccccc2CCC3)c1C1CC1`, the activation is inactive: -15.1%. `CC(C)=CCC/C(C)=C\COc1c2ccoc2cc2oc(=O)ccc12`: the activation is inactive: 3.16%. For `COc1cc(C(=O)Oc2ccc3c(OC)c4ccoc4nc3c2OC)cc(OC)c1OC`, the activation is inactive: -20.4%. Turning to `COC(=O)CC1[C@@]2(C)C[C@]34OC5(C)OC6(C7CC(=O)OC(c8ccoc8)[C@]7(C)CCC6(O5)[C@]13C)C(OC(C)=O)[C@]4(OC(C)=O)C2OC(C)=O` (some centres undefined), the activation was inactive: -12.5%. In the case of `COc1ccc(NC(=O)N2CC[C@@]3(CCCN(C(=O)c4ccc(OC)cc4)C3)C2)cc1`, the activation was inactive: -18.7%. On to `COc1ccc2[nH]cc(CCO)c2c1`, for which the activation was inactive: 2.46%.

Regarding `CC/C=C\C/C=C\C/C=C\C/C=C\C/C=C\CCCCCC(=O)O`, the activation was inactive: 11.6%. As to `COc1ccc(C(=O)N2CCC[C@@]3(CCN(C(=O)Nc4ccccc4)C3)C2)cc1`, the activation is inactive: -6.84%. In the case of `CC(C)NCC(O)COc1cccc2ccccc12` (centres undefined), the activation was inactive: -9.13% and inactive: -12.6% and inactive: -4.62%. The value for `CCC1(C2CCN(C(=O)c3ccccc3C(C)=O)CC2)NC(=O)N(CCc2scnc2C)C1=O` (centres undefined) was inactive: -9.73%; that for `COc1cccc(CNc2ccc3nc(-c4ccc(N)cc4)c(OC)n3n2)c1` was inactive: -10.4% and inactive: -13.4%. Regarding `CC(=O)N1CCC[C@@]2(CCN(c3ccccc3)C2)C1`, the activation is inactive: -20.5%. For the molecule `COC(=O)N1CCC[C@@]2(CCN(C(=O)Nc3cccc(F)c3)C2)C1`, the activation was inactive: -3.1%. Take `O=C(Nc1cccc(F)c1)N1CC[C@@]2(CCCN(S(=O)(=O)c3ccccc3)C2)C1`: the activation is inactive: -9.33%.

Regarding `CC(=O)Nc1ccccc1-c1nc(CNC(=O)c2cc(C)ccc2C)c(C)o1`, the activation was inactive: -3.94%. On to `CC(=O)OC1c2c(ccc3ccc(=O)oc23)OC(C)(C)C1OC(=O)CC(C)C` (centres undefined), for which the activation is inactive: -16.8%. Consider `O=C(CCCN1CCC(C(=O)c2ccc(F)cc2)CC1)c1ccc(F)cc1`, for which the activation was inactive: -11.7%.

For the molecule `Cc1ccn(CCC(=O)NCC2Cc3cc(Cl)cc(-c4ccc5[nH]ccc5c4)c3O2)n1` (centres undefined), the activation is inactive: -7.75%. In the case of `CCOC(=O)C(=O)C1(C(=O)OCC)Oc2cc(OC)cc(OC)c2C(=O)C1c1ccccc1` (centres undefined), the activation was inactive: -3.98%. In the case of `CC[C@@H](C)[C@@H](CO[C@@H](Cc1ccccc1)C(=O)N[C@@H](CCS(C)(=O)=O)C(=O)OC(C)C)NC[C@@H](N)CS`, the activation is inactive: -3.91%.

For the molecule `COCCn1c(=O)c(-c2cccc(C#N)c2)nc2cnc(Oc3cccc(Cl)c3)nc21`, the activation was inactive: -5.61%.

Turning to `COC(=O)c1ccc(C(=O)NCC2Cc3cccc(-c4ccc(C(=O)OC)cn4)c3O2)cc1` (centres undefined), the activation was inactive: -0.608%. With `CC(=O)N[C@@H]([C@@H](O)[C@H](O)[C@H](O)CO)[C@@H](O)CC(=O)C(=O)O`, the activation was inactive: -3.65%. With `COc1ccc(CN2CCC3(CC2)c2ccccc2[C@@H](NC(=O)c2ccsc2)[C@@H]3OC)cc1O`, the activation was inactive: 2.2%. With `Cc1cnc(SCc2ccccn2)nc1C1CCCN(C(=O)c2scc3c2CCCC3)C1` (centres undefined), the activation is inactive: -31.4%. For the molecule `Cc1occc1C(=O)Nc1cccc(-c2nc(CNC(=O)c3cc(-c4ccccc4)n[nH]3)c(C)o2)c1`, the activation was inactive: 14.8%.

The values above are taken from PubChem BioAssay AID1645887 (National Center for Advancing Translational Sciences (NCATS), 2021).
